# Results published in the BET-seq Pho4 binding data (Le et al. 2018).
# This is one part of the list. Values were computed here from the reads of four pooled replicates and scatter widely.
# Biological target: T1, Pho4 (S. cerevisiae) (UniProt P07270)
# T1 sequence: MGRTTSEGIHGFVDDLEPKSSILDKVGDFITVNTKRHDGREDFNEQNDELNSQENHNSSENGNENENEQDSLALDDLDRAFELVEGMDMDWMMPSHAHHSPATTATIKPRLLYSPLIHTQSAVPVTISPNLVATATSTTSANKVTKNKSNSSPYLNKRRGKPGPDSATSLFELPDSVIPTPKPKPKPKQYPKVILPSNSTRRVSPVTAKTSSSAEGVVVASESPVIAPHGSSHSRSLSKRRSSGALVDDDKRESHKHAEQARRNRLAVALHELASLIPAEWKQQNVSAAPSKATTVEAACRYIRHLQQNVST
# Test: relative binding free energy (BET-seq); higher = weaker binding
# Conditions: reference: library average
row,Sequence,relative binding free energy [kcal/mol]
1,ACATTCACGTGATGGT,0.28
2,TCAGACACGTGGCGGG,0.03
3,TAAGGCACGTGTTGCT,-0.17
4,ATTAACACGTGAGGGC,0.23
5,CTTATCACGTGATAGT,0.29
6,AGATGCACGTGGTTCG,-0.17
7,CGGATCACGTGTGGGG,0.2
8,AATGTCACGTGGTACT,-0.05
9,GTGCGCACGTGGGTTT,-0.12
10,TTATACACGTGGCTGG,-0.07
11,GATTTCACGTGAATAT,0.47
12,GTAGGCACGTGGGGGT,-0.2
13,TTTGCCACGTGGAGAT,-0.03
14,ATGGGCACGTGGGTAG,-0.17
15,GGAATCACGTGGGGTT,0.11
16,CTTGTCACGTGTGTGA,0.05
17,GTGGACACGTGTAGAG,0.14
18,TAAGACACGTGGGCGG,-0.25
19,GGTTACACGTGGGGGG,0.06
20,ATCTTCACGTGCGGGT,0.18
21,GTTGGCACGTGGATCT,-0.07
22,CGGTGCACGTGGTGAT,-0.07
23,GTAGTCACGTGTTGTT,0.31

row,Sequence,relative binding free energy [kcal/mol]
1,GGGCACACGTGTGATG,0.28
2,TGGCACACGTGCGGTT,-0.03
3,TAGGGCACGTGATAGC,-0.05
4,TGTCTCACGTGCTGTG,0.03
5,TGGTACACGTGCCGGT,-0.04
6,TTATACACGTGATGAG,0.27
7,TACAGCACGTGGAGGT,-0.22
8,GGATGCACGTGGCTTT,0.04
9,CAGGACACGTGTGGGG,0.09
10,GTGGCCACGTGGGTTG,-0.1
11,GGGCTCACGTGGCGCG,0.19
12,TAAGGCACGTGGAAAG,0.01
13,CTTTTCACGTGCTTGA,0.22
14,TGGGCCACGTGGGGAC,-0.07
15,CGTATCACGTGTAGGG,0.23
16,TTTCTCACGTGGTGCG,0.08
17,ATAATCACGTGTAATT,0.29
18,GGAGTCACGTGCGTGT,0.24
19,CGTGTCACGTGATTGC,0.21
20,ATGGCCACGTGCGGTG,-0.24
21,TAAGTCACGTGGGGTA,-0.17
22,GGGGTCACGTGACGTG,0.22
23,AATTTCACGTGATTAG,0.3

row,Sequence,relative binding free energy [kcal/mol]
1,GAGGGCACGTGACATG,0.15
2,GTAGTCACGTGGCAGT,-0.08
3,CGTCGCACGTGTAGTG,0.06
4,ATTTGCACGTGGAAAG,0.23
5,TGGTACACGTGGTCTT,-0.02
6,TGTGACACGTGAATTT,0.23
7,TGGTCCACGTGTTTAT,0.02
8,TTCTGCACGTGTCTGA,0.12
9,TTTGTCACGTGTTGGC,0.08
10,AATGTCACGTGGACAT,0.23
11,TTGTGCACGTGGGTGC,-0.1
12,GTGTTCACGTGTTCTG,0.26
13,TATGGCACGTGGCTTG,-0.29
14,AATGTCACGTGAAAGG,0.37
15,TGTGTCACGTGTATTA,0.11
16,TGCTTCACGTGCATGT,0.27
17,TTTCGCACGTGGTGGC,-0.02
18,TGTAGCACGTGGTGCC,-0.14
19,GATGGCACGTGAATAG,0.26
20,CATGGCACGTGGTAGG,-0.24
21,TTGAACACGTGTTCTG,-0.02
22,CAGTCCACGTGGTGGT,0.01
23,CTAGGCACGTGAGGGA,-0.04

row,Sequence,relative binding free energy [kcal/mol]
1,TAATTCACGTGAGTAT,0.3
2,ATGGACACGTGGTCTA,-0.09
3,GGTTACACGTGAATAT,0.66
4,ATTATCACGTGATTTT,0.23
5,CTTGTCACGTGAGTCG,0.33
6,CATTTCACGTGTGTAA,0.19
7,TCATTCACGTGTTTTC,0.31
8,GTTTCCACGTGCGGGG,0.01
9,TCGGACACGTGGGTTG,-0.03
10,GAGTCCACGTGGTTGG,-0.04
11,TCAGACACGTGCGGGT,0.07
12,CGGGCCACGTGGGATG,-0.22
13,TGGAACACGTGGGGTG,-0.15
14,ATGTGCACGTGTAGCT,-0.15
15,GGTGTCACGTGGATAT,0.19
16,AGGTACACGTGGGAAA,0
17,TAGGACACGTGAGGTA,0.29
18,CGGGTCACGTGTTCGT,0.06
19,TATTTCACGTGCCTTT,0.18
20,AGTGTCACGTGGGTCA,-0.08
21,GAAGCCACGTGTGGAG,0.19
22,CGAGTCACGTGGCTGG,0.11
23,ACGATCACGTGTTGTG,0.04

row,Sequence,relative binding free energy [kcal/mol]
1,TGTGTCACGTGTCATA,0.03
2,TAAAGCACGTGTTAGT,-0.14
3,GGGTTCACGTGTAGTA,0.33
4,TATGCCACGTGGGCTG,-0.13
5,ATTCGCACGTGGGTCT,-0.13
6,GTTATCACGTGCGAGT,0.27
7,TTCCTCACGTGAGGTG,0.36
8,CTCGCCACGTGGTGGG,-0.13
9,ATGCTCACGTGTAGTT,0.19
10,GGGGACACGTGGTTGC,-0.14
11,AGGGACACGTGGCGTT,-0.03
12,GGACACACGTGAGGGG,0.14
13,TGGGGCACGTGCAATA,-0.2
14,ATGTACACGTGTGGAC,0.19
15,TGAGTCACGTGATCGT,0.09
16,GTTGTCACGTGTGAAT,0.14
17,TGCTGCACGTGTGCGT,-0.09
18,GGTGGCACGTGTGGTT,0.08
19,TGTTGCACGTGTGCTT,-0.06
20,AAATGCACGTGTATTG,0.01
21,TGGGTCACGTGCTTGG,0.1
22,GGATACACGTGGGCAG,-0.01
23,GCGCTCACGTGTGTGG,0.04
